# Test results reported in article PMC12136788.
# This is one part of the list.
# T1: UNK ZnF1-3 (human, UniProt Q9C0B0 31-174)
# T1 sequence: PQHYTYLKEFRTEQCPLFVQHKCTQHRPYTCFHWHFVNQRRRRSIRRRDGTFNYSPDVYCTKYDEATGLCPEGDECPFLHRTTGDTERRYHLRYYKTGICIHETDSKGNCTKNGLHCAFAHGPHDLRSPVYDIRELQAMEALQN
# B1: chr3:51263940:51263941:+_ENSMUSG00000063273_ENSMUST00000029303|mus_mus|motif|central (ssRNA)
# RNA: GGGAGUUCUACAGUCCGACGAUCGUAAAAUGGAUGCUGUCGAAGUACAUCUUCUAGUUUUAAUAAGUCCACAUAUGAUCGGAGGGUGAUCUUCCUCAUACAGUAUGUAUGAAAGUCAAACUGGUCAUCGGUGAUUUCUAUAAACAACAGAGGAUUGAGCAUCA
# B2: chr8:29927545:29927546:-_ENSG00000133872_ENST00000521265|hu_hu|motif|central (ssRNA)
# RNA: GGGAGUUCUACAGUCCGACGAUCAGGACUCAUAGCCUUCACAGCUCACCACAGUUUUUCCAAAUUUGUAUGCAAUAUCGGAGUCCGUCUUACAUUCCCACUGUACAUCAUACCCAUCCCAGCCUUUGUUCUGACACUGUAUGACAACAGAGGAUUGAGCAUCA
# B3: chr3:119450855:119450856:-_ENSMUSG00000028134_ENSMUST00000029780|mus_hu|mus_mus_mus_hu_False|8_48 (ssRNA)
# RNA: GGGAGUUCUACAGUCCGACGAUCUGUGGUGCCACUAAGAGGAGUAUUUGCUGUCUGGACAGCUGUCACAGCUUGAAGAACUGCCUGCGCACGUUGGUUUAAUGUAUUAUCUGUCUUUAGUUCUUUGUGAUUGGAGUACUGGAUCAACAGAGGAUUGAGCAUCA
# B4: chr10:22824096:22824097:-_ENSG00000150867_ENST00000376573|hu_mus|FALSE|FALSE (ssRNA)
# RNA: GGGAGUUCUACAGUCCGACGAUCUUAUUGGGAUGACAGAGAUGGUUACAGACAAAAACCAAAGCAGUUUUGUAAACUUCUAAAAGCAUACAGAUUGGCCACAGAGGAAAUGGUUACUCAGAUCAUGUAUAUGUACCUUCAUUUCAACAGAGGAUUGAGCAUCA
# B5: chr19:46159329:46159330:+_ENSMUSG00000015176_ENSMUST00000165017|mus_mus|motif|central (ssRNA)
# RNA: GGGAGUUCUACAGUCCGACGAUCUACAACAGUCAAGUUGUUGCAAAAUGUCUGUCAGAAAAGCUUACUUCGAAAUUAAAACGGAAAGUACUGUAAACAUGUAGCAGUAACAGCUACCAAGAACAAAACAAAGACAGCUGCAUGCAACAGAGGAUUGAGCAUCA
# B6: chr6:50805741:50805742:+_ENSG00000008196_ENST00000393655|hu_hu|FALSE|FALSE (ssRNA)
# RNA: GGGAGUUCUACAGUCCGACGAUCCAGGGAGGUGAGUAACGUGACAUUUGCUGCUUUGCGCCUGCCCGCGGGUAAAUUCAAACCGAUUUUUUCUAGCCUUUCUCGCAAAGAUCUCCCCCCAUUUUUCGAUUUGGCUCUUCUGAGCAACAGAGGAUUGAGCAUCA
# B7: chr6:30688276:30688277:+_ENSG00000196230_ENST00000327892|hu_mus|FALSE|FALSE (ssRNA)
# RNA: GGGAGUUCUACAGUCCGACGAUCCCGAUCUGGUUGCCACACUGUCCGGCCUGGAUGUGCACGAUUUCCCUCAUGGCUACGGUUUACUGAAAUAAUUGUUUUUGAUGGUUCCAAUGUAGGUACCGAACAAGAAAGAAAAUUAAGCAACAGAGGAUUGAGCAUCA
# B8: 149274316_149275877_704_3pUTR_ENSMUSG00000037887_ENSMUST00000039926|mouse|control|control (ssRNA)
# RNA: GGGAGUUCUACAGUCCGACGAUCGGAUGGACAGGAAGCUGUCUGCUGCCAGCACGCUGGCAUCUCGUGUGCUCUGGUCAUACACCACUACAUCCUGUGGUUCUGUGGCAUCCACCUGGCUCCGUGUAGCAGGCUGGAUAAGCUCAACAGAGGAUUGAGCAUCA
# B9: chr1:130260868:130260869:-_ENSMUSG00000026356_ENSMUST00000027602|mus_mus|motif|central (ssRNA)
# RNA: GGGAGUUCUACAGUCCGACGAUCCGUGAGUCGUUUGGGGUCACGAGGGAACAUUGAGGUCUGGCGUACGUUAUGCAAUCCGGAAAACAGCAUCGUCACCCUUUCCAGCCCAAUGCCACCACCAGCAUGAGGAGGAGCUCCAAACAACAGAGGAUUGAGCAUCA
# B10: chr11:118960446:118960447:+_ENSG00000256269_ENST00000278715|hu_hu|FALSE|FALSE (ssRNA)
# RNA: GGGAGUUCUACAGUCCGACGAUCGUGAAAGACAACAGCAUCAUGAGGGUUUUCCCGCUUGCAGAUGGCUCCGAUGGUGAAGCCAGGAGGAAGCACAGUGGGCAGGUCCUUCAAGGAGUGAACAACCAGGUCCACUUCAUUCUUCAACAGAGGAUUGAGCAUCA
# B11: chr1:193046084:193046085:+_ENSG00000116747_ENST00000432079|hu_hu|motif|central (ssRNA)
# RNA: GGGAGUUCUACAGUCCGACGAUCUUCAUCAGGGCGCCACUUCAGUUUCCCUCUGAGACCAUGACCUGUCUUGUAAGUUUCGGAUGCGAUCAAAAUAUGAAAUGGAUGUAUACGAGCCUUUUUUAAUAGUUUUUCAUUACACAGCAACAGAGGAUUGAGCAUCA
# B12: chr22:38894135:38894136:-_ENSG00000100201_ENST00000396821|hu_mus|motif|central (ssRNA)
# RNA: GGGAGUUCUACAGUCCGACGAUCAUAAUCGUCAGCCACCUGCUGCACCUGCUGCGCAAGCUCUCUGGUAGGAGCCAGCACGGGACAAAUUGGACCAUCUCCUCUUUCCAAGUAUGGCUGGUGGUUUAUAUGAACAAUCGCAGGCAACAGAGGAUUGAGCAUCA
# B13: chrX:7458662:7458663:+_ENSMUSG00000031155_ENSMUST00000033495|mus_hu|FALSE|FALSE (ssRNA)
# RNA: GGGAGUUCUACAGUCCGACGAUCAAGCAGGGCACCAGAACCAAAAUCAAUGAGUUUGGCACAGCCACGGCGUAGGUCUAUCAGGAUGUUCUCAUCCUUGAUGUCACGAUGGACAACUCCACGGGAAUGGCAGUGCUGGAUGGCCAACAGAGGAUUGAGCAUCA
# B14: chr8:74858975:74858976:-_ENSG00000154582_ENST00000284811|hu_mus|hu_hu_hu_mus_True|68_108 (ssRNA)
# RNA: GGGAGUUCUACAGUCCGACGAUCGACCUUGUACGUAAAAUACAUGCACACUUUUGAUAGCACAUGUGAAGGUAUCUCUCUAAAAUUGACCUCGUUGGUUUCAUUCUCAGCAAACUGACCUGGACCACUCAACAUAGCCUUUAUCAACAGAGGAUUGAGCAUCA
# B15: 20409568_20409688_309_3pUTR_ENSG00000185238_ENST00000331079|human|control|control (ssRNA)
# RNA: GGGAGUUCUACAGUCCGACGAUCAGGCAGGGGGUCUGCUGCUUGCCGUGGGGGAGAUCUGCAUCGUCCUCAUCCUCCCAGGCGGCCUCGUCCCCGCUGUCCGACAGUUCUGGCAGGUCCUCCUCAUUCUCCACAGCGCCCCGGCAACAGAGGAUUGAGCAUCA
# B16: chr8:104447970:104447971:+_ENSG00000164934_ENST00000297579|hu_hu|hu_hu_hu_mus_False|48_108 (ssRNA)
# RNA: GGGAGUUCUACAGUCCGACGAUCAUAUACCUCCCUGCUUCGGCUCUUGUCCACAGGAAAGAUUCUAAUAGACUUAUCAAAGCUGGCAGACACAAACUCCUUCCCAGUGGGAGAGUAGUCCACAUCAAGUACUGCAGACACGUGCAACAGAGGAUUGAGCAUCA
# B17: chr21:34924380:34924381:+_ENSG00000159140_ENST00000381679|hu_mus|motif|central (ssRNA)
# RNA: GGGAGUUCUACAGUCCGACGAUCCCUAGGUGAUACCCUAUAGGGAUCCGGAGUUAGUCUGUAGGGAUCAUGGCCGGAUCGGUAAGGGUCUUGUCCUAACCUGUAAGCAUCAUGGCCUAACCUGUAGGGGUCAUGACCCAACCUCAACAGAGGAUUGAGCAUCA
# B18: chr1:231488893:231488894:+_ENSG00000010072_ENST00000295050|hu_hu|motif|central (ssRNA)
# RNA: GGGAGUUCUACAGUCCGACGAUCAUUAACCAUUUUGCUCUGACUGGAUGAACUGCUGGAAUUCUGAGCUGUGGUUGUACGGUACUUUGGAUCAUUACCACUGCUUUUUAUUUGCUCUUUCUUGAUAAAAAAAUUGUCAAAAACCAACAGAGGAUUGAGCAUCA
# B19: chr14:102233281:102233282:+_ENSG00000078304_ENST00000556260|hu_hu|FALSE|FALSE (ssRNA)
# RNA: GGGAGUUCUACAGUCCGACGAUCACUUCUAAAAAUGUAACAUUGGACACAGUACACACACUUAAAAGAAACAACACCCACCUAUGGUCUGAUCUUACAAAAUGGACUUGAGGAAACUCAGAGCAAUUUAUUAACAUUCUAAAUCAACAGAGGAUUGAGCAUCA
# B20: chr17:30526466:30526467:+_ENSG00000126858_ENST00000394692|hu_hu|FALSE|FALSE (ssRNA)
# RNA: GGGAGUUCUACAGUCCGACGAUCGUAAGGGAAAACUUUAAAUAAAUCUUUAAGCUCAUCAGGUGACAAAGCACAGUCUCUAUCCAAAUCAUGCUUGUCAAAGGUGCUUUGGAGAAAUAAAUAUGCAUGAUGAUUUAAUUCAGUCAACAGAGGAUUGAGCAUCA
# B21: chr11:98549071:98549072:+_ENSMUSG00000017221_ENSMUST00000017365|mus_hu|FALSE|FALSE (ssRNA)
# RNA: GGGAGUUCUACAGUCCGACGAUCAUCCAGCUUGUCCAGGAACUCAUAGACCCGGGCGUGAUAAUAGUAACACUUUGCGGCUACAAGGUCUAGGGCCCGGCGGUUCUGAGUACUGAUCUUCUGCAUCAGAUCAUCAGAGAUCUUCAACAGAGGAUUGAGCAUCA
# B22: chr6:74354288:74354289:-_ENSG00000119899_ENST00000355773|hu_mus|motif|central (ssRNA)
# RNA: GGGAGUUCUACAGUCCGACGAUCACUCAGGUUCACCCGUAAGGCAUAGAGAACGAAGAAACCACAGAACGCCAAAAUCGCGGAGUUGUACCGAGCAGAGCAGCACACUGGAGCCGCUUCGGUCUGCCGGGCGCCCGGCAGGAGCAACAGAGGAUUGAGCAUCA
# Target: T1, UNK ZnF1-3
# Experiment: nsRBNS (natural sequence RNA bind-n-seq); RBNS binding buffer (assumed for nsRBNS): 25 mM Tris pH 7.5, 150 mM KCl, 3 mM MgCl2, 0.01% Triton X-100, 500 ug/ml BSA, 20 U/ml SUPERase-In, 4 C; UNK is unkempt and MSI1 is Musashi-1; names of the RNAs are library labels; protein concentration not given here; high values mean tight binding
row,Binder,binding signal [enrichment R]
1,B1,0.993
2,B2,0.751
3,B3,0.845
4,B4,1.58
5,B5,1.44
6,B6,1.13
7,B7,1.42
8,B8,0.79
9,B9,1.2
10,B10,0.794
11,B11,1.34
12,B12,0.905
13,B13,1.17
14,B14,0.762
15,B15,1.28
16,B16,1
17,B17,0.334
18,B18,0.728
19,B19,1.87
20,B20,0.944
21,B21,0.693
22,B22,1.11
